SMILES strings stand for the structures. The campaign covered roughly 310,000 compounds. About 14,000 (4.5%) showed an effect of 50% or more. Effects have a minus sign here. The list shows a part of the results.
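Note: peak tail current of the secondary pulse compared with the same well before compound.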

In the assay the target is human ether-à-go-go-related gene (hERG) potassium channel (human, UniProt Q12809). In words: primary screen, population patch clamp on CHO cells stably expressing hERG.
Sequence of human ether-à-go-go-related gene (hERG) potassium channel (Q12809 whole entry, looked up): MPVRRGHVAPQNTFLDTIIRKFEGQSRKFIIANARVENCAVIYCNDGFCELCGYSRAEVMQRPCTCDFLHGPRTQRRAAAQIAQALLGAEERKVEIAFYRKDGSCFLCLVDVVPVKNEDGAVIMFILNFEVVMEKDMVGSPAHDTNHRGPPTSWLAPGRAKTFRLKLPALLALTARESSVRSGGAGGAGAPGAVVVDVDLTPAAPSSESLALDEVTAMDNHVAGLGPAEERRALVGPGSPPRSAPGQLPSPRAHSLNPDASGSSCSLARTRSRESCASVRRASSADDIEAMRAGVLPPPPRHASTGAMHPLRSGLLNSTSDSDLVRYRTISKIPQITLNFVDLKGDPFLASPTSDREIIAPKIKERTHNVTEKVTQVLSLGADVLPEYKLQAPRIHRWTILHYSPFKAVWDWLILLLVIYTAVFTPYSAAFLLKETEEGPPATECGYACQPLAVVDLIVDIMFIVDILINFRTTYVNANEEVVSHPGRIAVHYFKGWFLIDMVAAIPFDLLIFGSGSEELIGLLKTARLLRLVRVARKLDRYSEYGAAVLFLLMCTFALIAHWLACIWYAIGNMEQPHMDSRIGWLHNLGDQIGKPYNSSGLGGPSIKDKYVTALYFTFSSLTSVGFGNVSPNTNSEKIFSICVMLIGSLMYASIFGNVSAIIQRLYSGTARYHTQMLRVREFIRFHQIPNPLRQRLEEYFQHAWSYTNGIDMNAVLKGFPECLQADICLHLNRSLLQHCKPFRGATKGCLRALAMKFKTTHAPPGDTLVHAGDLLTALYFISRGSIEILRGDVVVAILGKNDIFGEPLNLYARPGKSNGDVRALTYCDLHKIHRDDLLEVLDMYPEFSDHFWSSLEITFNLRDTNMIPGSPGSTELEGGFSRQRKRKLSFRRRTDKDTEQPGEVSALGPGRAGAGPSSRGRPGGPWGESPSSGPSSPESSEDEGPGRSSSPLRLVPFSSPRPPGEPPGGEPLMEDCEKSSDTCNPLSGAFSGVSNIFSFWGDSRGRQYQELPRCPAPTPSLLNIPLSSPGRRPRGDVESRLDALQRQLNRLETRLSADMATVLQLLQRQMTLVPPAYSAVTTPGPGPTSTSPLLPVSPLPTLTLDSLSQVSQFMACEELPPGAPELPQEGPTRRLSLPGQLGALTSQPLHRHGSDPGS
On to `O=C(CNS(=O)(=O)c1ccccc1)OCC(=O)c1c[nH]c2ccccc12`, for which the “hERG current change (%, negative = inhibition) at 10uM” value is on record as -2.37%. As to `COc1ccccc1C(=O)Nc1ccc(S(=O)(=O)Nc2cc(C)on2)cc1`, the “hERG current change (%, negative = inhibition) at 10uM” value came out at 4.07%.

For the compound `C/C(CC(=O)Nc1cc(Cl)ccc1C)=N\NC(=O)C(=O)N1CCCC1`, the “hERG current change (%, negative = inhibition) at 10uM” value is 16.4%. For `Cc1ccc(NC(=O)CSCC(=O)N(C)CC(=O)Nc2cccc3ccccc23)cc1` the value was -19%; for `COc1ccc(-c2cc3ccc(O)cc3oc2=O)cc1OC`, 12.6%.

As to `COc1cccc(OCC(O)CNC(C)c2ccccc2)c1.Cl` (stereo not shown), the “hERG current change (%, negative = inhibition) at 10uM” value is recorded as 2.14%. For `CCN(Cc1ccc(OC)c(F)c1)C(C)C(=O)Nc1ccc(S(=O)(=O)N2CCCC2)cc1` (stereo not shown) the value was -8.74%; for `c1cc2nnnn2nc1N1CCCCCC1`, -29.9%; for `C#CC[N+]1(CC#Cc2ccc(C#CC[N+]3(CC#C)CCOCC3)cc2)CCOCC1.[Br-]`, 3.46%. For `CC(C)C(=O)Nc1ccc2oc(-c3cc(F)c(F)cc3Cl)nc2c1` the value was -11.5%. With `NC(=O)SC/C(=N\S(=O)(=O)c1ccccc1)Nc1ccccc1`, the “hERG current change (%, negative = inhibition) at 10uM” value amounted to 8.73%.

For `Cc1ccc(SCC(=O)NCCCc2ccccc2)cc1`, the “hERG current change (%, negative = inhibition) at 10uM” value was 8.1%. With `CCCOc1ccc(C(=O)Nc2ccc(S(=O)(=O)Nc3cc(C)nc(C)n3)cc2)cc1`, the “hERG current change (%, negative = inhibition) at 10uM” value is 8.97%. For `C#CCOCCOCCOCCNc1nc(N2CCN(C(=O)[C@H](CCCCN)n3cc([C@@H](N)C(C)CC)nn3)CC2)nc(N2CCN(C(=O)[C@H](Cc3cc4ccccc4[nH]3)n3cc([C@@H](N)CC(C)C)nn3)CC2)n1.Cl` (stereo partly shown) the value was 7.05%; for `COc1cc(C=O)ccc1Oc1nnnn1-c1ccc(C(N)=O)cc1`, -7.51%. Take `Cc1ccc(NC(=O)c2cnn(-c3ccccc3)c2NC(=O)c2ccco2)cc1C`: the “hERG current change (%, negative = inhibition) at 10uM” value is recorded as 0.985%. Take `CCOc1ccc(Cn2c3ccc(OC)cc3c3nc4ccccc4nc32)cc1OC`: the “hERG current change (%, negative = inhibition) at 10uM” value is on record as 10.8%. `COc1ccccc1CNC(=O)C1CCN(S(=O)(=O)c2ccc3c(c2)CC(C)N3C(C)=O)CC1` (stereo not shown): the “hERG current change (%, negative = inhibition) at 10uM” value stood at 13%. As for `COc1cccc(NC(=O)N2CCN(c3cccc(C)c3C)CC2)c1`, the “hERG current change (%, negative = inhibition) at 10uM” value is -17.5%. With `COc1ccccc1OCC(=O)NNC(=O)Nc1ccccc1`, the “hERG current change (%, negative = inhibition) at 10uM” value worked out at 18.2%. Turning to `Cn1ncc2c(Nc3ccc(O)cc3)nc(Cl)nc21`, the “hERG current change (%, negative = inhibition) at 10uM” value was found to be 5.53%.

Take `CC1CCC(NC(=O)CN2C(=O)c3cccnc3Oc3ccc(Cl)cc32)CC1` (stereo not shown): the “hERG current change (%, negative = inhibition) at 10uM” value is -6.57%. For `O=C(COc1ccc2c3c(c(=O)oc2c1)CCCC3)NCC(O)c1ccccc1` (stereo not shown) the value was -2.73%; for `CN(C)c1ccc(NS(=O)(=O)c2ccc(-c3csnn3)cc2)cc1`, 13.1%; for `COc1cccc(C(=O)N2CCCC(c3nc(-c4cccs4)no3)C2)c1` (stereo not shown), -12.9%. In the case of `CC(=O)Nc1cccc(NC(=O)c2ccc3c(c2)CCN3S(=O)(=O)c2ccccc2)c1`, the “hERG current change (%, negative = inhibition) at 10uM” value turned out to be 18.4%. On to `CC(=O)CC(C)=NCCN=C(C)CC(C)=O`, for which the “hERG current change (%, negative = inhibition) at 10uM” value is on record as -4.29%. Consider `CC(C)Oc1cc(-n2c(=S)[nH]c3ccccc3c2=O)c(Cl)cc1Cl`, for which the “hERG current change (%, negative = inhibition) at 10uM” value was 5.31%. On to `O=C1c2ccccc2C(=O)N1CCCc1c[nH]c2ccc(Cl)cc12`, for which the “hERG current change (%, negative = inhibition) at 10uM” value is reported as -19.3%. In the case of `CCCCCn1c(=O)c(C(=O)NCc2ccccn2)c(O)c2ccccc21`, the “hERG current change (%, negative = inhibition) at 10uM” value was -5.21%. For `Cc1c(Nc2ncnc3c2cnn3-c2ccccc2)c(=O)n(-c2ccccc2)n1C` the value was 6.92%. In the case of `CCCCOC(C)n1cc(F)c(=O)[nH]c1=O` (stereo not shown), the “hERG current change (%, negative = inhibition) at 10uM” value was determined as 18.8%. For `C(=N\n1cnnc1)/c1ccc(-c2ccccc2)cc1`, the “hERG current change (%, negative = inhibition) at 10uM” value was -13.1%. `O=[N+]([O-])c1cc(CN2CCCC2)c2cccnc2c1O`: the “hERG current change (%, negative = inhibition) at 10uM” value is on record as 0.42%.

As to `COc1cccc(NC(=O)CNC(=O)c2cccs2)c1`, the “hERG current change (%, negative = inhibition) at 10uM” value stood at 5.78%. With `Clc1ccc(-c2noc(/C=C/c3ccccc3)n2)cc1`, the “hERG current change (%, negative = inhibition) at 10uM” value is reported as 18.2%. Consider `CC(/C=C/c1ccccc1)=N\NC(=O)CCc1ccccc1`, for which the “hERG current change (%, negative = inhibition) at 10uM” value is listed as -0.539%. For `Cc1ccccc1C(=O)NNC(=O)c1cccc([N+](=O)[O-])c1` the value was -9.18%; for `Cc1cccc(N2CCN(C(=O)CC(NC(=O)c3ccccc3)c3ccccc3)CC2C)c1` (stereo not shown), -47.1%. For `COc1cc(/C=N/NC(=O)Cc2cccs2)c([N+](=O)[O-])cc1OC` the value was -3.76%. `Cc1nn(S(=O)(=O)N(C)C)c(C)c1CN1C(=O)c2ccccc2C1=O`: the “hERG current change (%, negative = inhibition) at 10uM” value is reported as -14.3%.

On to `CC(C)=CCCC(C)CN(C)CCc1ccccn1` (stereo not shown), for which the “hERG current change (%, negative = inhibition) at 10uM” value is reported as -65.4%. On to `COc1ccc(OCCCC(=O)OC(C)C(=O)Nc2ccc(C)cc2)cc1` (stereo not shown), for which the “hERG current change (%, negative = inhibition) at 10uM” value is recorded as -26.6%.

For `Cc1[nH]c2ccccc2c1C(=O)C(=O)NC1CC1`, the “hERG current change (%, negative = inhibition) at 10uM” value is on record as 24.8%. In the case of `COc1cccc(N2C(=O)/C(=C\c3cccs3)NC2=S)c1`, the “hERG current change (%, negative = inhibition) at 10uM” value is on record as 17.5%. Take `COc1ccccc1NCC(O)Cn1c2ccccc2c2ccccc21` (stereo not shown): the “hERG current change (%, negative = inhibition) at 10uM” value is on record as -11.8%. In the case of `Cc1ccc(-n2c(C)nc3oc4ccccc4c(=O)c3c2=O)cc1`, the “hERG current change (%, negative = inhibition) at 10uM” value amounted to 4.99%. With `N#Cc1cnc(SCC(=O)NNC(=O)COc2cccc3ccccc23)nc1N`, the “hERG current change (%, negative = inhibition) at 10uM” value came to 4.36%. With `Cc1ccc(C2=NS(=O)(=O)N(C)C(C(=O)Nc3ccc4c(c3)OCO4)=C2)cc1`, the “hERG current change (%, negative = inhibition) at 10uM” value was -2.94%. For the compound `CCOC(=O)C1CCCN(S(=O)(=O)c2cc(OCC(=O)NC3CCCCC3)c(C)cc2Cl)C1` (stereo not shown), the “hERG current change (%, negative = inhibition) at 10uM” value is -10.3%. For `Cc1cccc(CC2S/C(=N/c3cccc(C)n3)NC2=O)c1` (stereo not shown) the value was -2.32%.

For `COc1ccc(OC)c(-c2csc(NC(=O)C3=COCCO3)n2)c1`, the “hERG current change (%, negative = inhibition) at 10uM” value worked out at 4.73%.

Take `Cc1cccc(N(CC(=O)NC(C)(C)C)C(=O)CNC(=O)c2cccs2)c1`: the “hERG current change (%, negative = inhibition) at 10uM” value is listed as -7.29%. As to `CCCCN(C(=O)C1=COCCO1)c1c(N)n(CCCC)c(=O)[nH]c1=O`, the “hERG current change (%, negative = inhibition) at 10uM” value came to 9.21%. For `CC(C)C(C)NC(=O)CN1C(=O)NC(C)(c2ccc3ccccc3c2)C1=O` (stereo not shown), the “hERG current change (%, negative = inhibition) at 10uM” value was 10.3%.

(Values after paper PMC4336329 (PLoS ONE, 2015).)
